# In the supplement of paper PMC8728848:
# This is one part of the list.
# B1: Pa IMPa (Pseudomonas aeruginosa), Q9I5W4 (protein)
# chain: MSLSTTAFPSLQGENMSRSPIPRHRALLAGFCLAGALSAQAATQEEILDAALVSGDSSQLTDSHLVALRLQQQVERIRQTRTQLLDGLYQNLSQAYDPGAASMWVLPANPDNTLPFLIGDKGRVLASLSLEAGGRGLAYGTNVLTQLSGTNAAHAPLLKRAVQWLVNGDPGAATAKDFKVSVVGVDKTAALNGLKSAGLQPADAACNALTDASCASTSKLLVLGNGASAASLSATVRARLQAGLPILFVHTNGWNQSSTGQQILAGLGLQEGPYGGNYWDKDRVPSSRTRTRSVELGGAYGQDPALVQQIVDGSWRTDYDWSKCTSYVGRTTCDDVPGLSDFSKRVDVLKGALDAYNQKAQNLFALPGTTSLRLWLLWADAVRQNIRYPMDKAADTARFQETFVADAIVGYVREAGAAQKELGSYAGQRQQSMPVSGSEETLTLTLPSAQGFTAIGRMAAPGKRLSIRIEDAGQASLAVGLNTQRIGSTRLWNTRQYDRPRFLKSPDIKLQANQSVALVSPYGGLLQLVYSGATPGQTVTVKVTGAASQPFLDIQPGEDSSQAIADFIQALDADKADWLEIRSGSVEVHAKVEKVRGSIDKDYGGDVQRFIRELNEVFIDDAYTLAGFAIPNQAKTPAIQQECAARGWDCDSETLHKLPGTQHINVDQYAQCGGGCSGNPYDQTWGLNPRGWGESHELGHNLQVNRLKVYGGRSGEISNQIFPLHKDWRVLREFGQNLDDTRVNYRNAYNLIVAGRAEADPLAGVYKRLWEDPGTYALNGERMAFYTQWVHYWADLKNDPLQGWDIWTLLYLHQRQVDKSDWDANKAALGYGTYAQRPGNSGDASSTDGNDNLLLGLSWLTQRDQRPTFALWGIRTSAAAQAQVAAYGFAEQPAFFYANNRTNEYSTVKLLDMSQGSPAWPFP
# What was measured:
# Assay in all cases: glycan array binding signal (z-score within array); higher = stronger binding
# Settings in all cases: glycan notation: IUPAC condensed, linker removed
# [1] = molecular target: Gal(b1-4)GlcNAc(b1-3)Gal(b1-4)GlcNAc(b1-2)[Gal(b1-4)GlcNAc(b1-3)Gal(b1-4)GlcNAc(b1-6)]Man(a1-6)[Gal(b1-4)GlcNAc(b1-3)Gal(b1-4)GlcNAc(b1-2)Man(a1-3)]Man(b1-4)GlcNAc(b1-4)GlcNAc
# Outline: (§1)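 The binding signal is a Z-score computed within each array and averaged over linkers. Arrays of the same protein sequence at different concentrations or buffers were also averaged together. Data originate from 3228 arrays in the Consortium for Functional Glycomics database, kept only where the protein sequence was available.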
# [2] = molecular target: Gal(b1-4)GlcNAc(b1-3)Gal(b1-4)GlcNAc(b1-2)[Gal(b1-4)GlcNAc(b1-3)Gal(b1-4)GlcNAc(b1-6)]Man(a1-6)[Gal(b1-4)GlcNAc(b1-3)Gal(b1-4)GlcNAc(b1-2)Man(a1-3)]Man(b1-4)GlcNAc(b1-4)[Fuc(a1-6)]GlcNAc
# Outline: as §1
# [3] = molecular target: Gal(b1-4)GlcNAc(b1-3)Gal(b1-4)GlcNAc(b1-3)Gal(b1-4)GlcNAc
# Outline: as §1
# [4] = molecular target: Gal(b1-4)GlcNAc(b1-3)Gal(b1-4)GlcNAc(b1-3)Gal(b1-4)GlcNAc(b1-2)Man(a1-3)[Gal(b1-4)GlcNAc(b1-3)Gal(b1-4)GlcNAc(b1-3)Gal(b1-4)GlcNAc(b1-2)Man(a1-6)]Man(b1-4)GlcNAc(b1-4)GlcNAc
# Outline: as §1
# [5] = molecular target: Gal(b1-4)GlcNAc(b1-3)Gal(b1-4)GlcNAc(b1-3)Gal(b1-4)GlcNAc(b1-2)Man(a1-3)[Gal(b1-4)GlcNAc(b1-3)Gal(b1-4)GlcNAc(b1-3)Gal(b1-4)GlcNAc(b1-2)Man(a1-6)]Man(b1-4)GlcNAc(b1-4)[Fuc(a1-6)]GlcNAc
# Outline: as §1
# [6] = molecular target: Gal(b1-4)GlcNAc(b1-3)Gal(b1-4)GlcNAc(b1-3)Gal(b1-4)GlcNAc(b1-2)[Gal(b1-4)GlcNAc(b1-3)Gal(b1-4)GlcNAc(b1-3)Gal(b1-4)GlcNAc(b1-6)]Man(a1-6)[Gal(b1-4)GlcNAc(b1-3)Gal(b1-4)GlcNAc(b1-3)Gal(b1-4)GlcNAc(b1-2)Man(a1-3)]Man(b1-4)GlcNAc(b1-4)[Fuc(a1-6)]GlcNAc
# Outline: as §1
# [7] = molecular target: Gal(b1-4)GlcNAc(b1-3)Gal(b1-4)GlcNAc(b1-3)Gal(b1-4)GlcNAc(b1-3)Gal(b1-4)GlcNAc(b1-2)Man(a1-3)[Gal(b1-4)GlcNAc(b1-3)Gal(b1-4)GlcNAc(b1-3)Gal(b1-4)GlcNAc(b1-3)Gal(b1-4)GlcNAc(b1-2)Man(a1-6)]Man(b1-4)GlcNAc(b1-4)GlcNAc
# Outline: as §1
# [8] = molecular target: Gal(b1-4)GlcNAc(b1-3)Gal(b1-4)GlcNAc(b1-3)Gal(b1-4)GlcNAc(b1-3)Gal(b1-4)GlcNAc(b1-2)Man(a1-3)[Gal(b1-4)GlcNAc(b1-3)Gal(b1-4)GlcNAc(b1-3)Gal(b1-4)GlcNAc(b1-3)Gal(b1-4)GlcNAc(b1-2)Man(a1-6)]Man(b1-4)GlcNAc(b1-4)[Fuc(a1-6)]GlcNAc
# Outline: as §1
# [9] = molecular target: Gal(b1-4)GlcNAc(b1-3)Gal(b1-4)GlcNAc(b1-3)Gal(b1-4)GlcNAc(b1-3)Gal(b1-4)GlcNAc(b1-2)[Gal(b1-4)GlcNAc(b1-3)Gal(b1-4)GlcNAc(b1-3)Gal(b1-4)GlcNAc(b1-3)Gal(b1-4)GlcNAc(b1-6)]Man(a1-6)[Gal(b1-4)GlcNAc(b1-3)Gal(b1-4)GlcNAc(b1-3)Gal(b1-4)GlcNAc(b1-3)Gal(b1-4)GlcNAc(b1-2)Man(a1-3)]Man(b1-4)GlcNAc(b1-4)[Fuc(a1-6)]GlcNAc
# Outline: as §1
# [10] = molecular target: Gal(b1-4)GlcNAc(b1-3)Gal(b1-4)GlcNAc(b1-3)Gal(b1-4)GlcNAc(b1-3)Gal(b1-4)GlcNAc(b1-3)Gal(b1-4)GlcNAc(b1-2)Man(a1-3)[Gal(b1-4)GlcNAc(b1-3)Gal(b1-4)GlcNAc(b1-3)Gal(b1-4)GlcNAc(b1-3)Gal(b1-4)GlcNAc(b1-3)Gal(b1-4)GlcNAc(b1-2)Man(a1-6)]Man(b1-4)GlcNAc(b1-4)GlcNAc
# Outline: as §1
# [11] = molecular target: Gal(b1-4)GlcNAc(b1-3)Gal(b1-4)GlcNAc(b1-3)Gal(b1-4)GlcNAc(b1-3)Gal(b1-4)GlcNAc(b1-3)Gal(b1-4)GlcNAc(b1-2)Man(a1-3)[Gal(b1-4)GlcNAc(b1-3)Gal(b1-4)GlcNAc(b1-3)Gal(b1-4)GlcNAc(b1-3)Gal(b1-4)GlcNAc(b1-3)Gal(b1-4)GlcNAc(b1-2)Man(a1-6)]Man(b1-4)GlcNAc(b1-4)[Fuc(a1-6)]GlcNAc
# Outline: as §1
# [12] = molecular target: Gal(b1-4)GlcNAc(b1-3)Gal(b1-4)GlcNAc(b1-3)Gal(b1-4)GlcNAc(b1-3)Gal(b1-4)GlcNAc(b1-3)Gal(b1-4)GlcNAc(b1-2)[Gal(b1-4)GlcNAc(b1-3)Gal(b1-4)GlcNAc(b1-3)Gal(b1-4)GlcNAc(b1-3)Gal(b1-4)GlcNAc(b1-3)Gal(b1-4)GlcNAc(b1-6)]Man(a1-6)[Gal(b1-4)GlcNAc(b1-3)Gal(b1-4)GlcNAc(b1-3)Gal(b1-4)GlcNAc(b1-3)Gal(b1-4)GlcNAc(b1-3)Gal(b1-4)GlcNAc(b1-2)Man(a1-3)]Man(b1-4)GlcNAc(b1-4)[Fuc(a1-6)]GlcNAc
# Outline: as §1
# [13] = molecular target: Gal(b1-4)GlcNAc(b1-3)Gal(b1-4)GlcNAc(b1-3)Gal(b1-4)GlcNAc(b1-3)Gal(b1-4)GlcNAc(b1-3)Gal(b1-4)GlcNAc(b1-3)Gal(b1-4)GlcNAc(b1-2)Man(a1-3)[Gal(b1-4)GlcNAc(b1-3)Gal(b1-4)GlcNAc(b1-3)Gal(b1-4)GlcNAc(b1-3)Gal(b1-4)GlcNAc(b1-3)Gal(b1-4)GlcNAc(b1-3)Gal(b1-4)GlcNAc(b1-2)Man(a1-6)]Man(b1-4)GlcNAc(b1-4)GlcNAc
# Outline: as §1
# [14] = molecular target: Gal(b1-4)GlcNAc(b1-3)Gal(b1-4)GlcNAc(b1-3)GalNAc
# Outline: as §1
# [15] = molecular target: Gal(b1-4)GlcNAc(b1-3)Gal(b1-4)GlcNAc(b1-3)[Gal(b1-4)GlcNAc(b1-3)Gal(b1-4)GlcNAc(b1-6)]GalNAc
# Outline: as §1
# [16] = molecular target: Gal(b1-4)GlcNAc(b1-3)Gal(b1-4)GlcNAc(b1-6)[Gal(b1-3)]GalNAc
# Outline: as §1
# [17] = molecular target: Gal(b1-4)GlcNAc(b1-3)Gal(b1-4)[Fuc(a1-3)]GlcNAc(b1-3)Gal(b1-4)[Fuc(a1-3)]GlcNAc
# Outline: as §1
# [18] = molecular target: Gal(b1-4)GlcNAc(b1-3)GalNAc
# Outline: as §1
# [19] = molecular target: Gal(b1-4)GlcNAc(b1-3)[Fuc(a1-3)GlcNAc(b1-6)]Gal(b1-4)Glc
# Outline: as §1
# [20] = molecular target: Gal(b1-4)GlcNAc(b1-3)[Gal(b1-4)GlcNAc(b1-6)]Gal(b1-4)GlcNAc
# Outline: as §1
# [21] = molecular target: Gal(b1-4)GlcNAc(b1-3)[GlcNAc(b1-6)]Gal(b1-4)GlcNAc
# Outline: as §1
# [22] = molecular target: Gal(b1-4)GlcNAc(b1-6)Gal(b1-4)GlcNAc
# Outline: as §1
# [23] = molecular target: Gal(b1-4)GlcNAc(b1-6)GalNAc
# Outline: as §1
# [24] = molecular target: Gal(b1-4)GlcNAc(b1-6)[Gal(b1-3)]GalNAc
# Outline: as §1
# [25] = molecular target: Gal(b1-4)GlcNAc(b1-6)[Gal(b1-4)GlcNAc(b1-3)]GalNAc
# Outline: as §1
# [26] = molecular target: Gal(b1-4)GlcNAc6P
# Outline: as §1
# [27] = molecular target: Gal(b1-6)Gal
# Outline: as §1
# [28] = molecular target: Gal3S(b1-3)GalNAc
# Outline: as §1
# [29] = molecular target: Gal3S(b1-3)GlcNAc
# Outline: as §1
# [30] = molecular target: Gal3S(b1-3)[Fuc(a1-4)]GlcNAc
# Outline: as §1
binder,measurement,setting,value
B1,glycan array binding signal (z-score),[1],0.343
same,glycan array binding signal (z-score),[2],-0.092
same,glycan array binding signal (z-score),[3],-0.198
same,glycan array binding signal (z-score),[4],-0.029
same,glycan array binding signal (z-score),[5],0.811
same,glycan array binding signal (z-score),[6],-0.021
same,glycan array binding signal (z-score),[7],-0.445
same,glycan array binding signal (z-score),[8],0.038
same,glycan array binding signal (z-score),[9],-0.395
same,glycan array binding signal (z-score),[10],10.7
same,glycan array binding signal (z-score),[11],-0.209
same,glycan array binding signal (z-score),[12],0.196
same,glycan array binding signal (z-score),[13],-0.219
same,glycan array binding signal (z-score),[14],-0.316
same,glycan array binding signal (z-score),[15],-0.144
same,glycan array binding signal (z-score),[16],0.236
same,glycan array binding signal (z-score),[17],-0.339
same,glycan array binding signal (z-score),[18],-0.231
same,glycan array binding signal (z-score),[19],-0.301
same,glycan array binding signal (z-score),[20],-0.061
same,glycan array binding signal (z-score),[21],-0.16
same,glycan array binding signal (z-score),[22],-0.112
same,glycan array binding signal (z-score),[23],-0.227
same,glycan array binding signal (z-score),[24],-0.133
same,glycan array binding signal (z-score),[25],0.162
same,glycan array binding signal (z-score),[26],-0.446
same,glycan array binding signal (z-score),[27],0.022
same,glycan array binding signal (z-score),[28],0.375
same,glycan array binding signal (z-score),[29],-0.254
same,glycan array binding signal (z-score),[30],-0.143
